Earlier results on 1 molecule are cited in patent publication US4079139A, “Flavone derivatives” (priority 1974, dated 1978).

The data set deals with toxicity of sodium Pentobarbital. Particulars: background statement, in words; cited from earlier work.

With `CC(N)Cc1ccccc1` (stereo not shown) [amphetamine], the “effect on the toxicity of the barbiturate” value was “do not modify the toxicity of the barbiturate”.
